Test results reported in paper PMC4336329 (PLoS ONE, 2015).
About 2,200 (0.71%) of roughly 310,000 compounds showed an effect of 50% or more. Effects have a minus sign here. The list shows a part of the results.

target: human ether-à-go-go-related gene (hERG) potassium channel (human, UniProt Q12809); assay: primary screen, population patch clamp on CHO cells stably expressing hERG
Sequence (Q12809 whole entry, looked up): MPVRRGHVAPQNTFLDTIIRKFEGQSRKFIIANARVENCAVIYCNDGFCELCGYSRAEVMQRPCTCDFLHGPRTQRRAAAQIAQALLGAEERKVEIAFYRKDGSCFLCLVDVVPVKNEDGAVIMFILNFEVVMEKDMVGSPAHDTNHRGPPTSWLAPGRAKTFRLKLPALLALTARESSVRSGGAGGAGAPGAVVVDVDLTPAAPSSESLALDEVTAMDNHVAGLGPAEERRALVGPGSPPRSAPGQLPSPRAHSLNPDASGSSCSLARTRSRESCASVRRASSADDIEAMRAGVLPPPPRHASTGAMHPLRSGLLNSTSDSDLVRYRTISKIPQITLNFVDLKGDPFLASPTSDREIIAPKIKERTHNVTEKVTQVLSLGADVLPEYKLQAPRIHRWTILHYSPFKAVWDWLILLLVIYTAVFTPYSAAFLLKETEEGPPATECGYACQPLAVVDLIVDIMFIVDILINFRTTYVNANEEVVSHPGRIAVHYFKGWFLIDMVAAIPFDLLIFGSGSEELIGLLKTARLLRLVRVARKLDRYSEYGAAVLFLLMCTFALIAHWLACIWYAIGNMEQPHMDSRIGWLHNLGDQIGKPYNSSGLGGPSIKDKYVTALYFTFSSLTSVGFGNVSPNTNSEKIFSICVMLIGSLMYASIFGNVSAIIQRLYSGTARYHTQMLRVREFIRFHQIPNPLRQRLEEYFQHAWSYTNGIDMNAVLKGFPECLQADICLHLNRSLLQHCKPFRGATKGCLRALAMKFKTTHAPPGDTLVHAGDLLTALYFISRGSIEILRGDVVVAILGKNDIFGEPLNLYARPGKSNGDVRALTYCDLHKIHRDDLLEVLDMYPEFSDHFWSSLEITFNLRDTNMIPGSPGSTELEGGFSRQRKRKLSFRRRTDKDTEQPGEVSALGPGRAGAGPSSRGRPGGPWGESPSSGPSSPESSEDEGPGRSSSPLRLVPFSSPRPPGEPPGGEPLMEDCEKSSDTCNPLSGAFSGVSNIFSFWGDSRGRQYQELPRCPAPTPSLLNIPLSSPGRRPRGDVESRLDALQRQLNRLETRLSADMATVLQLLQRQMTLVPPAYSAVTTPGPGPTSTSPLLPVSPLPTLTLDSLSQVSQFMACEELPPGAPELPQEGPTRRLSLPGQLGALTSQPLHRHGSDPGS

| Structure (SMILES) | hERG current change (%, negative = inhibition) at 1uM |
| --- | --- |
| O=c1[nH]nc(-c2ccccc2)c2ccccc12 | 1.65% |
| CCCSc1nc(C)cc(=O)[nH]1 | 16% |
| O=C(NNc1ccccc1)/C(=C\c1cccnc1)NC(=O)c1ccccc1 | 4.41% |
| O=C(COC(=O)/C=C/c1ccccc1Cl)NCc1ccco1 | 35.7% |
| COc1ccc2c(c1)C(=O)N1[C@H]3c4cc(OC)ccc4OC[C@@H]3[C@H](c3ccccc3)[C@]1(C)C(=O)N2 | 14.6% |
| COCCCNC(=O)c1cc2c(=O)n(C)c3ccccc3c2n1C | -8.02% |
| Cc1cc(O)c(C(=O)Cc2csc(C)n2)c(O)c1 | -1.71% |
| O=C(COC(=O)/C=C/c1ccc(Cl)cc1Cl)NCCC1=CCCCC1 | 8.02% |
| CC(C)(C)C(=O)Nc1cccc2[nH]ncc12 | 3.91% |
| O=C(c1c[nH]c(C(=O)C(Cl)(Cl)Cl)c1)c1ccccc1Br | 14.5% |
| C=CCSc1ncccc1C(=O)O | 10.5% |
| CCCN(CCC)CCCNC(=O)c1cc2c(-c3ccc(OC)c(OC)c3)nn(C)c2s1 | 5.71% |
| CCOC(=O)C1=C(C)N(CC(C)C)C(=O)C1 | 14.5% |
| Cc1ccc(S(=O)(=O)Cn2nnnc2C(CC(C)C)N2CCN(C3CCCC3)CC2)cc1.Cl (centres unmarked) | 6.31% |
| CCC(=O)NC(Nc1sc2c(c1C(=O)OC)CCCC2)(C(F)(F)F)C(F)(F)F | 11.5% |
| COc1ccc(NC(=O)CN2C(=O)COc3ccccc32)cc1OC | 21.9% |
| CSc1nc(Cl)cc(=O)[nH]1 | 11.4% |
| Cc1cc(NC(=O)c2cc(-c3ccc(C)c(C)c3)nc3ccccc23)no1 | 9.42% |
| CN(c1ccccc1C(=O)Nc1cccnc1)S(C)(=O)=O | 4.33% |
| COc1ccc(-c2noc(C3CCCN(C(=O)Nc4ccccc4)C3)n2)cc1 (centres unmarked) | 4.05% |
| CCCOc1ccc(C(=O)Nc2c[nH]c(=O)[nH]c2=O)cc1 | -1.98% |
| O=C(O)/C=C/c1cnc2ccccc2c1 | 10.1% |

| Structure (SMILES) | hERG current change (%, negative = inhibition) at 1uM |
| --- | --- |
| CCCc1c(O)nc(SCCN(CC)CC)n(C(=O)c2ccccc2)c1=O.Cl | -23.1% |
| Cc1cccc(NC2=NCC(=O)N2Cc2ccccc2)c1 | 16.3% |
| Cc1ccc(SCC(=O)NCc2ccc(F)cc2)cc1 | 5.31% |
| CCOC(=O)c1ccc(-c2ccc3[nH]c4ccccc4c(=O)c3c2)cc1F | 11.1% |
| CC(=O)Oc1c(Sc2ccccc2[N+](=O)[O-])c(C)nn1C(C)(C)C | -1.5% |
| Cc1ccccc1NC(=O)c1ccc(COc2ccc3c(C)cc(=O)oc3c2)cc1 | 13.8% |
| COc1ccc(F)c(C2C(C#N)=C(N)Oc3n[nH]c(C(C)(C)C)c32)c1 (centres unmarked) | 13.4% |
| COc1ccc(N2CCN(CCC(=O)c3ccc4ccccc4c3)CC2)cc1 | 11.4% |
| Fc1ccccc1CSc1ncnc2c1oc1ccccc12 | 9.4% |
| O=C(O)C1C(C(=O)O)C1(c1ccccc1)c1ccccc1 (centres unmarked) | 14.1% |
| COc1ccc(OC)c(NC(=O)CSc2nc3n[nH]c(C)c3c(=N)n2-c2cccc(Cl)c2C)c1 | 9.76% |
| NNC(=O)/C=C/c1ccc(Cl)cc1Cl | 7.44% |
| COc1ccc(CCNC(C)CCc2ccc(OC)cc2)cc1 (centres unmarked) | -2.61% |
| Cc1ccc(Cl)cc1N1CCN(C(=O)c2cn(C)c(=O)c3c2c2ccccc2n3C)CC1 | 5.27% |
| COc1cccc(/C=N/NC(=O)NC23CC4CC(CC(C4)C2)C3)c1O | 6.53% |
| O=C(Cn1c2ccccc2c(=O)c2ccccc21)N/N=C/c1cc([N+](=O)[O-])ccc1N1CCCCCC1 | 9.02% |
| O=C(Nc1cc(S(=O)(=O)N2CCCCC2)ccc1Cl)C1=NN(c2ccccc2)C(=O)CC1 | 13.7% |
| O=C(/C=C/c1ccc(-c2cccc([N+](=O)[O-])c2)o1)N1CCOCC1 | 11.8% |
| CCN1c2ccc(S(=O)(=O)N3CCOCC3)cc2N(Cc2ccc(OC)cc2)C1C (centres unmarked) | 11.7% |
| CC1CCC(NC(=O)c2cccc(S(=O)(=O)N3CCN(c4ccc(F)cc4)CC3)c2)CC1 (centres unmarked) | 11.2% |
| COc1ccc(/C=N\NC(=O)C2COc3ccccc3O2)cc1O (centres unmarked) | 4.76% |
| C#CCOCCOCCOCCNc1nc(N2CCN(C(=O)[C@H](CCCCN)n3cc([C@@H](N)CC(C)C)nn3)CC2)nc(N2CCN(C(=O)[C@H](CCCCN)n3cc([C@@H](N)CC(C)C)nn3)CC2)n1.Cl | 7.45% |
